Some of the results follow. Rule as the data show it: active = 3.2 or more and inactive = the rest. Most of these values are background signal.
B1: TP53_Y234_Y234F_YF (peptide)
chain: CTTIHFNFMCN
B2: TP53_Y234_Y234H (peptide)
chain: CTTIHHNYMCN
B3: TP53_Y234_Y234K (peptide)
chain: CTTIHKNYMCN
B4: TP53_Y234_Y234K_YF (peptide)
chain: CTTIHKNFMCN
B5: TP53_Y234_Y234N_YF (peptide)
chain: CTTIHNNFMCN
B6: TP53_Y234_Y234Q_YF (peptide)
chain: CTTIHQNFMCN
B7: TP53_Y234_Y234S_YF (peptide)
chain: CTTIHSNFMCN
B8: TP53_Y234_Y236C (peptide)
chain: CTTIHYNCMCN
B9: TP53_Y234_Y236D (peptide)
chain: CTTIHYNDMCN
B10: TP53_Y234_Y236H (peptide)
chain: CTTIHYNHMCN
B11: TP53_Y234_Y236S (peptide)
chain: CTTIHYNSMCN
B12: TP53_Y327_D324Y (peptide)
chain: PLYGEYFTLQI
B13: TP53_Y327_D324Y_YF (peptide)
chain: PLFGEYFTLQI
B14: TP53_Y327_E326G (peptide)
chain: PLDGGYFTLQI
B15: TP53_Y327_F328L (peptide)
chain: PLDGEYLTLQI
B16: TP53_Y327_F328S (peptide)
chain: PLDGEYSTLQI
B17: TP53_Y327_I332V (peptide)
chain: PLDGEYFTLQV
B18: TP53_Y327_L323M (peptide)
chain: PMDGEYFTLQI
B19: TP53_Y327_L323R (peptide)
chain: PRDGEYFTLQI

What was measured:
Assay in all cases: enrichment score (SH2-bound / input frequency) (ratio); bacterial display of known human phosphotyrosine sites (pTyr-Var adds point mutants) read by sequencing; higher = stronger binding; tyrosines were phosphorylated by kinases first
Conditions in all cases: peptide library: pTyr-Var
[1] = target: SHP2 C-SH2 domain E139D
[2] = target: SHP2 C-SH2 domain wild-type
[3] = target: SHP2 N-SH2 domain L43F
[4] = target: SHP2 N-SH2 domain T42A
[5] = target: SHP2 N-SH2 domain T52S
[6] = target: SHP2 N-SH2 domain wild-type
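Also: displayed peptides selected on beads carrying the immobilized SH2 domain, with library peptides lacking any tyrosine serving as negative controls.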

Binder | enrichment score [1] | enrichment score [2] | enrichment score [3] | enrichment score [4] | enrichment score [5] | enrichment score [6]
B1 | active: 3.86 | inactive: 3.05 | inactive: 3.13 | inactive: 2.64 | inactive: 2.74 | inactive: 3.04
B2 | inactive: 2.92 | active: 3.53 | inactive: 2.77 | inactive: 2.26 | inactive: 2.7 | inactive: 2.24
B3 | inactive: 1.75 | inactive: 2.34 | inactive: 1.64 | inactive: 1.47 | inactive: 1.47 | inactive: 1.41
B4 | inactive: 0.756 | inactive: 0.84 | inactive: 0.837 | inactive: 0.792 | inactive: 0.787 | inactive: 0.884
B5 | inactive: 2.23 | inactive: 2.16 | inactive: 2.16 | inactive: 1.83 | inactive: 1.86 | inactive: 1.84
B6 | inactive: 2.14 | inactive: 2.24 | inactive: 2.29 | inactive: 1.88 | inactive: 2.14 | inactive: 1.53
B7 | inactive: 2.27 | inactive: 2.27 | inactive: 2.24 | inactive: 2.09 | inactive: 2.29 | inactive: 2.03
B8 | inactive: 1.23 | inactive: 1.13 | inactive: 1.19 | inactive: 1.01 | inactive: 0.951 | inactive: 1.27
B9 | inactive: 1.95 | inactive: 1.37 | inactive: 1.46 | inactive: 1.11 | inactive: 1.3 | inactive: 1.12
B10 | inactive: 2.75 | inactive: 2.27 | inactive: 2.31 | inactive: 2.36 | inactive: 2.8 | inactive: 2.27
B11 | inactive: 1.85 | inactive: 2.04 | inactive: 2.07 | inactive: 1.69 | inactive: 2.25 | inactive: 1.56
B12 | inactive: 1.13 | inactive: 1.14 | inactive: 1.13 | inactive: 0.991 | inactive: 0.923 | inactive: 1.31
B13 | inactive: 0.83 | inactive: 1.2 | inactive: 1.15 | inactive: 1.01 | inactive: 0.805 | inactive: 1.12
B14 | inactive: 1.38 | inactive: 1.82 | inactive: 0.879 | inactive: 1.24 | inactive: 1.04 | inactive: 1.16
B15 | inactive: 0.473 | inactive: 0.656 | inactive: 0.848 | inactive: 0.532 | inactive: 0.73 | inactive: 0.635
B16 | inactive: 0.576 | inactive: 0.725 | inactive: 0.567 | inactive: 0.541 | inactive: 0.77 | inactive: 0.621
B17 | inactive: 0.97 | inactive: 1 | inactive: 0.69 | inactive: 0.611 | inactive: 0.737 | inactive: 0.726
B18 | inactive: 0.824 | inactive: 1.2 | inactive: 0.707 | inactive: 0.661 | inactive: 0.561 | inactive: 1.01
B19 | inactive: 0.632 | inactive: 0.742 | inactive: 0.685 | inactive: 0.422 | inactive: 0.534 | inactive: 0.731
